Assay results taken from the supplement of paper PMC4166925.
± gives the standard deviation of the averaged measurements. The full ranking holds about 33,000 sequences; the median of “E-score (dimensionless, -0.5 to 0.5)” is about -0.046, and the highest 2% start at about 0.36. Some of the results follow.

Tested on: T1, SpTbr T-box DNA-binding domain (GST fusion)
T1 sequence: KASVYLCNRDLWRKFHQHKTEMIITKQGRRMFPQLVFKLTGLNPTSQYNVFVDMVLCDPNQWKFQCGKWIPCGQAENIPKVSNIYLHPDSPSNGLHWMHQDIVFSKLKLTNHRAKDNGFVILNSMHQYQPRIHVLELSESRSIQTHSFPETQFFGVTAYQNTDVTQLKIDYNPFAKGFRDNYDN
Experiment: PBM E-score of 8-mer (E-score (dimensionless, -0.5 to 0.5)); Tbr is Tbrain of the sea star Patiria miniata (Pm) or the sea urchin Strongylocentrotus purpuratus (Sp); higher = stronger binding preference; most listed sequences are background and not binding sites
Conditions: the construct has about 5 more residues each side
Experimental: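 Universal protein-binding microarray (Agilent AMADID 016060, 60-bp probes with a 35-bp variable region) incubated with 200 nM GST-fused Strongylocentrotus purpuratus Tbr T-box DNA-binding domain (residues 362-554) in PBS pH 7.5. Scored for every ungapped 8-mer (given with its reverse complement) as E-score (range -0.5 to 0.5; >0.45 counts as bound) and Z-score of median probe intensity. Two replicate arrays (datasets 1 and 2).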
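Further: protein at 200 nM in PBS on universal double-stranded arrays.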

Sequence | PBM E-score of 8-mer
TAACTATA | -0.0992 ± 0.044
GCGGCAGC | 0.0933 ± 0.05
GACTAGCA | 0.0676 ± 0.022
AATCGAAT | -0.129 ± 0.06
ACGCTGTA | 0.102 ± 0.047
ACGTAGGA | -0.214 ± 0.02
CTTTAGAA | -0.167 ± 0.032
CTGCCGCA | -0.0714 ± 0.043
CTATAATC | -0.114 ± 0.018
AGCGCCGC | 0.091 ± 0.0034
CACCCGAA | 0.151 ± 0.013
AATGCCGA | -0.0904 ± 0.14
GTCGTCGA | 0.0692 ± 0.15
AGCAGAGA | -0.259 ± 0.039
GGCGAAAA | 0.0241 ± 0.021
ACGAAATG | -0.0253 ± 0.033
GCATTTAA | -0.0933 ± 0.068
CCATCGCG | 0.14 ± 0.078
GAAGTCCA | -0.108 ± 0.025
AGAAGGCA | -0.0541 ± 0.0098
CCGAGCAC | -0.0191 ± 0.066
AGTACGCC | -0.139 ± 0.023
ACGGTCTC | -0.0762 ± 0.06
ATTAGTCG | -0.0379 ± 0.062
CACATCAG | 0.228 ± 0.033

Sequence | PBM E-score of 8-mer
GGGTAGTA | -0.213 ± 0.11
CGGCTTAG | -0.105 ± 0.025
ACTCCCTA | -0.0912 ± 0.011
CCTAACAC | 0.4165 ± 0.0028
AAACTTCT | -0.146 ± 0.1
GGCAAGCC | -0.153 ± 0.07
AATTTGTG | 0.0488 ± 0.1
AAGGACAA | -0.0652 ± 0.051
CCGGCTAA | -0.0862 ± 0.019
AACGCACT | 0.0575 ± 0.047
CTGGGACA | -0.241 ± 0.058
TAGCGCAA | 0.231 ± 0.016
GCGTATTA | 0.00166 ± 0.048
GTAGCGCA | -0.148 ± 0.091
AGCTAGAG | -0.0382 ± 0.025
CGGCTTTC | -0.0277 ± 0.031
ACCCCTCT | -0.063 ± 0.085
ACTCCTTC | -0.0245 ± 0.025
ACCGTGTG | 0.203 ± 0.052
GAGGTCTA | -0.284 ± 0.0014
GTTAGGCA | -0.0322 ± 0.014
CGCAATCC | 0.0307 ± 0.032
AATTACTC | 0.0848 ± 0.054
ACTGTCAG | 0.098 ± 0.038
CGTTGGCA | 0.297 ± 0.013

Sequence | PBM E-score of 8-mer
AACATCGT | -0.0949 ± 0.034
GACCTCTC | -0.153 ± 0.016
CTCGGAAG | -0.144 ± 0.0097
AACTACCG | -0.143 ± 0.049
CTAGAGAC | -0.0218 ± 0.03
GGGGTTGA | -0.0351 ± 0.11
GATAAACC | -0.0548 ± 0.058
CGGGTCGA | 0.00773 ± 0.0096
ACATGTGC | 0.142 ± 0.065
ACGGATTG | 0.0492 ± 0.024
GATGCTGC | -0.207 ± 0.037
AAAGGGTG | 0.252 ± 0.024
CCTACCGA | -0.116 ± 0.11
AAGGGCAC | 0.00111 ± 0.074
GCATTGCA | -0.0979 ± 0.0092
CGGAGTCC | -0.199 ± 0.05
CGCGGCTA | 0.111 ± 0.012
ACTCATAA | -0.0942 ± 0.0043
CTCTAAAG | -0.232 ± 0.018
AGCTCATG | -0.0522 ± 0.014
ACGCAACC | -0.0406 ± 0.1
CTGACGCC | 0.288 ± 0.031
AAAGGTAG | -0.11 ± 0.06
CTGCCCCC | -0.332 ± 0.016
ACCACCTA | 0.109 ± 0.065

Sequence | PBM E-score of 8-mer
CACTGAAC | 0.0134 ± 0.035
ACGCGGTC | 0.103 ± 0.065
ATCCCTAG | -0.075 ± 0.038
GCGATGGA | 0.0533 ± 0.048
AGTATATA | -0.136 ± 0.042
CGCCCCAC | 0.00751 ± 0.0027
AGGACTCC | -0.29 ± 0.025
AGCTTGCC | 0.00656 ± 0.071
AACGAGCC | -0.277 ± 0.035
CCACTAGA | -0.201 ± 0.048
CCCACGAG | 0.0819 ± 0.033
ACGTGGAG | -0.121 ± 0.018
AGACTGTC | -0.0979 ± 0.023
CCGGCTAC | -0.103 ± 0.0069
ATGCCCTA | -0.2895 ± 0.00057
CCTCTTCG | 0.199 ± 0.035
CTTGCCTC | -0.128 ± 0.041
CCAAATAG | -0.1389 ± 0.00028
CATAAATA | -0.141 ± 0.046
CGGTGTAC | -0.0701 ± 0.034
CTGAAAAC | -0.0582 ± 0.057
ATACTGAC | -0.142 ± 0.033
TCGAACGA | -0.00886 ± 0.02
GAGGTATC | -0.125 ± 0.023
ACCCATCC | -0.232 ± 0.027

Sequence | PBM E-score of 8-mer
GAGCAATA | -0.201 ± 0.072
AGCACTTC | 0.3006 ± 0.0019
AAGTGGGG | 0.177 ± 0.0055
CATTAGTA | -0.258 ± 0.017
TCGATAGA | -0.00357 ± 0.049
TCGTTAAA | -0.0516 ± 0.063
CACATCTC | 0.149 ± 0.055
TCATCAAA | -0.0744 ± 0.057
CCTCCAAG | -0.00379 ± 0.04
ACCGTTAT | 0.118 ± 0.081
ACTCATCA | -0.00884 ± 0.065
AGGCACCA | -0.15 ± 0.085
AATCGATA | 0.125 ± 0.0065
AGAGCCCG | -0.173 ± 0.016
ATTAACAA | 0.14 ± 0.023
GAACACCA | 0.104 ± 0.014
GAATGACC | -0.0328 ± 0.00067
ACGCCTAC | 0.28 ± 0.014
AATAGTTA | -0.0269 ± 0.049
CCTTCCGC | 0.168 ± 0.062
GAGGATCC | -0.059 ± 0.051
GTCTCGTA | -0.27 ± 0.0013
ACACATGC | 0.289 ± 0.0014
ATCACCTA | 0.321 ± 0.065
TAAACAGA | 0.107 ± 0.026

Sequence | PBM E-score of 8-mer
CTCAAGCA | -0.201 ± 0.0083
AATCATGC | -0.113 ± 0.018
CATTCTGC | 0.0731 ± 0.02
AAGTGGAG | -0.0833 ± 0.13
CACGACGA | -0.048 ± 0.056
ATCCGTTC | -0.14 ± 0.0066
AATACAAT | -0.264 ± 0.023
AACGGTGA | 0.152 ± 0.039
CAAAACGA | -0.00577 ± 0.0098
ATGAGATC | -0.236 ± 0.014
CAAATTAA | -0.0282 ± 0.037
AACCAATG | -0.227 ± 0.088
AATTATAG | -0.249 ± 0.051
GCGTATGA | 0.0523 ± 0.011
AAGCCAAC | -0.219 ± 0.026
AGGTAAGA | -0.219 ± 0.079
CTAGCGAG | 0.129 ± 0.041
ATCAACAT | -0.111 ± 0.028
CCAGTCCC | -0.112 ± 0.028
TGCCTCCA | -0.261 ± 0.043
CAGCGTGC | -0.0832 ± 0.038
ATTTTCAC | 0.202 ± 0.079
TTCGTCAA | 0.143 ± 0.062
AAGAACGT | 0.0235 ± 0.03
CCCCATGC | -0.159 ± 0.13

Sequence | PBM E-score of 8-mer
ATCAGTAC | -0.114 ± 0.0072
ACGGGCAA | -0.18 ± 0.079
CAGACCCG | 0.142 ± 0.051
CTACTATC | -0.0381 ± 0.058
CAATTCAG | -0.0756 ± 0.052
GTCTAAAC | -0.127 ± 0.099
CGATCGAC | 0.246 ± 0.012
ATTCAATA | -0.18 ± 0.016
TTCATCAA | -0.146 ± 0.015
TATTCTAA | -0.215 ± 0.022
TAGCATGA | -0.265 ± 0.0047
CACCTGAG | 0.3492 ± 0.00078
CGAATATC | -0.0861 ± 0.035
AGGATAAG | -0.163 ± 0.0048
ACAGGAAT | 0.0131 ± 0.032
GCGGCTAA | 0.15 ± 0.0054
GACCAGGA | -0.124 ± 0.049
TGGGTGAA | -0.137 ± 0.0066
CCTCAACA | -0.0119 ± 0.047
CGCTCAAG | -0.0431 ± 0.0039
TCCCAACA | 0.202 ± 0.003
CGAAGCAA | 0.0425 ± 0.013
ACCCAGTC | -0.24 ± 0.0062
CACACTGC | 0.175 ± 0.0027
CAGTTCCA | -0.09108 ± 0.00077

Sequence | PBM E-score of 8-mer
AGTCCTAT | -0.318 ± 0.11
CGAACCAA | 0.0451 ± 0.0078
AAAGTTCG | 0.0442 ± 0.025
GGACTTAA | -0.307 ± 0.01
AAAATCAC | 0.209 ± 0.022
CCCGCGAG | 0.254 ± 0.0046
AAGGTGAA | 0.187 ± 0.0077
AGTCAAGA | -0.156 ± 0.061
ATTTGCTA | 0.133 ± 0.0068
AAAATTTT | -0.141 ± 0.15
AACCGTAG | -0.0901 ± 0.015
GTAGAAAC | -0.21 ± 0.0056
CGAAAAAA | -0.13 ± 0.14
ATCCCAGC | -0.171 ± 0.041
CTTACCTC | -0.0201 ± 0.025
ACGCTGCG | 0.0912 ± 0.061
AAGTAGTC | -0.153 ± 0.0063
CAAGGCCG | -0.0893 ± 0.0095
TCAGAGGA | 0.0964 ± 0.045
CGCTGCAG | -0.0743 ± 0.11
AGCCACTC | -0.1427 ± 0.0014
GGCATAGA | -0.287 ± 0.012
GATGTTAC | 0.068 ± 0.00029
CGTCCCTC | -0.185 ± 0.077
CCGTTTCC | -0.0143 ± 0.09

Sequence | PBM E-score of 8-mer
AAGTGGCT | 0.0589 ± 0.047
GCAGACTA | -0.148 ± 0.0038
CATGTTCG | -0.0105 ± 0.069
GGGATGGA | -0.198 ± 0.03
TAACGTGA | 0.133 ± 0.037
CCGAAAGC | -0.0294 ± 0.049
GCCTTTCC | -0.0333 ± 0.013
GCATATCA | -0.0952 ± 0.062
GCGTTAAA | 0.317 ± 0.04
AAACCAAT | -0.235 ± 0.039
GGAAACCC | -0.0429 ± 0.0096
AGCAGTAT | -0.137 ± 0.08
GGGGAGAC | -0.0202 ± 0.082
AACGTATT | 0.0419 ± 0.033
CAGCTAAA | -0.13 ± 0.029
CAACATGA | 0.00917 ± 0.017
CTTCACGC | 0.409 ± 0.01
CACAGTGC | 0.166 ± 0.038
CTCCCGAA | -0.226 ± 0.04
